Results reported in the BET-seq Pho4 binding data (Le et al. 2018).
Some of the results follow. These are noisy estimates, calculated here from bound and input reads.

Target: T1, Pho4 (S. cerevisiae) (UniProt P07270)
T1 sequence: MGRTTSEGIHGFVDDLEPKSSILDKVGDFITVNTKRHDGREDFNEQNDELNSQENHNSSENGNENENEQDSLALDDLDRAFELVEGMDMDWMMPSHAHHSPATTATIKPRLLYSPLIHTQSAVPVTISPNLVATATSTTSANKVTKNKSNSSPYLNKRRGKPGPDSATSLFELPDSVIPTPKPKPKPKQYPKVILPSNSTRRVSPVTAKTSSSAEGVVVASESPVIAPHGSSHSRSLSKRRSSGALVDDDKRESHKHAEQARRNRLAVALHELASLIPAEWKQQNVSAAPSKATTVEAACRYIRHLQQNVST
Assay: relative binding free energy (BET-seq); higher = weaker binding
Details: reference: library average

Relative binding free energy, -0.04 kcal/mol:
GGTTGCACGTGCATTG
TAAAGCACGTGGGTAC
ACGTGCACGTGGATGA
TCGTGCACGTGTGTGA
TTAGGCACGTGAGCGA

Relative binding free energy, -0.02 kcal/mol:
GTGTGCACGTGGATGA
ATGATCACGTGGGATG
TCGGACACGTGTGGTA
TTCAACACGTGTGGTG
GGTTCCACGTGTATTG
GTTAGCACGTGACGGG

Relative binding free energy, -0.26 kcal/mol:
AATGGCACGTGGTTCT

Relative binding free energy, -0.12 kcal/mol:
AGTGGCACGTGGGGGC
TTTAGCACGTGCGGCT
TGTGGCACGTGCTTAT
TCGGGCACGTGGGTCA
CGGGACACGTGGTGAG
GGGGGCACGTGGGTTT

Relative binding free energy, 0.44 kcal/mol:
GAGTCCACGTGACGGG

Relative binding free energy, -0.13 kcal/mol:
TCGGGCACGTGTTTGA
CGGTGCACGTGGCAAG
CATGGCACGTGTTGTT

Relative binding free energy, 0.37 kcal/mol:
TTCTTCACGTGTTTAT

Relative binding free energy, 0.24 kcal/mol:
GGGATCACGTGTATGC
TGGATCACGTGTCTTT
TACGTCACGTGAGAGT

Relative binding free energy, 0.07 kcal/mol:
GTTAACACGTGTACGT
GGGTACACGTGGCGGC
GATGTCACGTGCGGTT
TGCGTCACGTGGTGAC
ATTGGCACGTGAATGT
TGTCGCACGTGATGGT
TATAACACGTGCTGGG
GTTGGCACGTGAAGTA

Relative binding free energy, -0.11 kcal/mol:
TAGTGCACGTGGGCAT

Relative binding free energy, -0.33 kcal/mol:
TATGCCACGTGGGGCG

Relative binding free energy, 0.17 kcal/mol:
CCGTTCACGTGGGAGG
ATAGACACGTGAGTGG

Relative binding free energy, 0.12 kcal/mol:
GTTTACACGTGTATCT
AGTTACACGTGTGAGG
CTGAACACGTGGTTTT
GAGCTCACGTGGGGGT
AATGTCACGTGTATTG

Relative binding free energy, 0.25 kcal/mol:
TACTTCACGTGTATTG

Relative binding free energy, -0.01 kcal/mol:
GAGAGCACGTGTGATG
GGGTGCACGTGATTAG
GGTATCACGTGCGTAG
TTCGGCACGTGGTAAT
TGGTACACGTGCGTGT
TTATGCACGTGATAAG
AGTAACACGTGTAGTT

Relative binding free energy, 0 kcal/mol:
AGTGACACGTGTTGCG
GTGTCCACGTGGCGGG

Relative binding free energy, 0.14 kcal/mol:
CTGGGCACGTGAAGGT
TATTTCACGTGCTAGG
TTAATCACGTGGCTGT
GAGGGCACGTGATGAT

Relative binding free energy, -0.1 kcal/mol:
TGGTGCACGTGCGGTA
TTAAGCACGTGGATGA
TAAGGCACGTGTGGTT
AAAGGCACGTGGAGGG
TCTTGCACGTGGTAAT
TTTAGCACGTGTGACT
GTCTGCACGTGCGGGT

Relative binding free energy, -0.32 kcal/mol:
AAGGGCACGTGGGCGT

Relative binding free energy, -0.31 kcal/mol:
TAGGCCACGTGGGCGT

Relative binding free energy, 0.18 kcal/mol:
ATGTTCACGTGGGTTG
TGGGGCACGTGAGCGC
TGATACACGTGAGCGG
TTTCTCACGTGGTCGT
TTCTTCACGTGGATGA
TGGCTCACGTGGAGTA
TGGGGCACGTGAGCAA

Relative binding free energy, 0.1 kcal/mol:
TTCGACACGTGTGGCT
TATGTCACGTGTGCTT
GGTTCCACGTGTGGTA
ATTTCCACGTGGTTTG

Relative binding free energy, -0.06 kcal/mol:
CTGTACACGTGGGAGG
GGAGGCACGTGCCGTT
GTTCGCACGTGGGATG
TTCGGCACGTGTATTA
ACTGGCACGTGGAGGT

Relative binding free energy, 0.27 kcal/mol:
TTTTACACGTGATGAC

Relative binding free energy, -0.05 kcal/mol:
TGGGACACGTGGGACA
GCAGGCACGTGTGATG
GGCTGCACGTGGGTTT
TTTGGCACGTGCGACT

Relative binding free energy, 0.45 kcal/mol:
GTGATCACGTGAGTCG

Relative binding free energy, 0.06 kcal/mol:
CCTTGCACGTGTTGTT
GCCGTCACGTGGGCTG
AAGTACACGTGTGGTG
CATGGCACGTGAGTAT

Relative binding free energy, -0.07 kcal/mol:
TAAGGCACGTGTACGG

Relative binding free energy, -0.35 kcal/mol:
GGTGGCACGTGGGTAC

Relative binding free energy, 0.23 kcal/mol:
TTCGACACGTGATTTG
GCAGTCACGTGGTTTA
GAGGACACGTGATGGA

Relative binding free energy, 0.29 kcal/mol:
GCGTTCACGTGTGGGT

Relative binding free energy, 0.08 kcal/mol:
AACGTCACGTGGAGGT
GTTTGCACGTGCTTCA
GGTTGCACGTGCCGGT
GGCTGCACGTGTGCGG
AGTATCACGTGCTGTT
GGGGTCACGTGGTCCT

Relative binding free energy, -0.23 kcal/mol:
CAGGCCACGTGGGGTT
ACGAACACGTGGGGGT

Relative binding free energy, 0.28 kcal/mol:
CTGTGCACGTGAGGTG
GGGTTCACGTGGAGCA
AAGTTCACGTGTGATT

Relative binding free energy, 0.33 kcal/mol:
GTTTACACGTGAGACG
TTGGTCACGTGAGGTA
TAATTCACGTGGGGCG
GAGTTCACGTGGAGGT
GAAGTCACGTGAATGT

Relative binding free energy, 0.04 kcal/mol:
ATAGTCACGTGGTCAT
TAAGTCACGTGTTGAA

Relative binding free energy, 0.09 kcal/mol:
AGAGTCACGTGGAGTA
TTCTTCACGTGGGGGG

Relative binding free energy, 0.34 kcal/mol:
GTCTTCACGTGCAGGG

Relative binding free energy, 0.02 kcal/mol:
TAGGACACGTGGTTCG
TTAGTCACGTGGGGTT
TTGTGCACGTGTTGTT
GTGATCACGTGGCTTT
CGCCTCACGTGGGTGT
TGGCGCACGTGATGGA
TGGAGCACGTGGATTT
AGGTGCACGTGTTAGG
TGATACACGTGGATGA

Relative binding free energy, 0.01 kcal/mol:
CGGTGCACGTGATTGT
TTAAGCACGTGTGGAG
TTATGCACGTGGAAGT
AGTGTCACGTGCACGG
GGGTCCACGTGGAGGT
GGAGGCACGTGATTGA
TGCATCACGTGCTGTT
GGTCGCACGTGTTTTG

Relative binding free energy, 0.32 kcal/mol:
GTATTCACGTGAGTTC

Relative binding free energy, -0.03 kcal/mol:
ATCTACACGTGGGGGG
CATAGCACGTGTGGTT
TACGGCACGTGTTCGG
AGTAACACGTGGCTTT
TATTACACGTGGGCGA
ATGTGCACGTGTGTCT

Relative binding free energy, -0.18 kcal/mol:
CGGAGCACGTGGGAGG

Relative binding free energy, 0.15 kcal/mol:
TTGTACACGTGTTGGA
AGTGTCACGTGTTAAA
TGGCGCACGTGTTGGA
GGGCGCACGTGATGGC
GTTGTCACGTGGTTGT
GTGGACACGTGTCGTA

Relative binding free energy, 0.51 kcal/mol:
TGTTTCACGTGAGAGC

Relative binding free energy, 0.2 kcal/mol:
TCTGTCACGTGATGGC
TTATTCACGTGGATGA

Relative binding free energy, 0.39 kcal/mol:
GTGTTCACGTGGAATT

Relative binding free energy, 0.42 kcal/mol:
AAGGTCACGTGAAAAT

Relative binding free energy, -0.16 kcal/mol:
AGGGGCACGTGGGAAC
ATGGGCACGTGGGACT

Relative binding free energy, -0.17 kcal/mol:
AGGGGCACGTGTGTAA
AAATGCACGTGGGTAT
TCTGGCACGTGGGAGG

Relative binding free energy, 0.22 kcal/mol:
GTGTACACGTGATTGA
ATTGACACGTGTGGGA
ATTCACACGTGTAGTT
CATTTCACGTGGGCTG
TTGGTCACGTGAAGCA

Relative binding free energy, 0.05 kcal/mol:
TCTGTCACGTGGTCGT
TTTGTCACGTGACGAG
TTTAACACGTGGGATT
GTCTGCACGTGGGAAT

Relative binding free energy, 0.03 kcal/mol:
TTCAGCACGTGTGGGG
GCGTACACGTGGGGGC
ATGAGCACGTGTCGGC
CGGGTCACGTGGTGGT
TGTAGCACGTGTGAGT
GTGCACACGTGTTAGT
AATTGCACGTGGTAGA
CAGTACACGTGTTTGT

Relative binding free energy, 0.4 kcal/mol:
GTTTTCACGTGTATTC

Relative binding free energy, 0.31 kcal/mol:
GAGATCACGTGTAGTT

Relative binding free energy, 0.16 kcal/mol:
AGTGTCACGTGATAGC
GATGTCACGTGTTGGG
TGAGTCACGTGTCCTG

Relative binding free energy, 0.11 kcal/mol:
TTATACACGTGTCTGG
AGCATCACGTGTTTTA
TCAGTCACGTGTTGGC
CTTTACACGTGTTTCG

Relative binding free energy, -0.14 kcal/mol:
TTATACACGTGTTAAG
ATGGACACGTGGGGCG
AGGGGCACGTGGTTCC

Relative binding free energy, 0.3 kcal/mol:
AACTTCACGTGGGATT
TATGTCACGTGAAAGA
AGATTCACGTGGAAGG
TGCTTCACGTGTTTTG

Relative binding free energy, 0.19 kcal/mol:
GGGGACACGTGAGTCG
GAGGTCACGTGGCTGC
ATTCTCACGTGGCGGT
AATATCACGTGTGATT
AGGCTCACGTGTGGTT

Relative binding free energy, -0.22 kcal/mol:
TCGAGCACGTGGGGTG
TGTAGCACGTGGGGGT

Relative binding free energy, -0.15 kcal/mol:
TTGTACACGTGGGTCG
TTTACCACGTGGGGCA
AGCGGCACGTGTGGGC
TTAAGCACGTGGGCTA

Relative binding free energy, -0.19 kcal/mol:
ATGTGCACGTGGGGTT
TCACGCACGTGGGGGG

Relative binding free energy, -0.08 kcal/mol:
TTAAACACGTGGTTGG
GTGGGCACGTGCGATG
TGGGGCACGTGGCTCG
CTTTGCACGTGTGGCT

Relative binding free energy, -0.09 kcal/mol:
GCGAACACGTGGGGTG

Relative binding free energy, 0.38 kcal/mol:
GGTTTCACGTGTGGGC
GGGGTCACGTGAGGGT

Relative binding free energy, -0.25 kcal/mol:
TGTGGCACGTGGGCAG

Relative binding free energy, 0.13 kcal/mol:
TGGTACACGTGTCAAG
GTATGCACGTGATTGT
GTTGTCACGTGGTTTG
GGGTACACGTGTTTGA
ATTTACACGTGTGAAG
CTTTGCACGTGTATCT
GGTCACACGTGAGTGG

Relative binding free energy, 0.35 kcal/mol:
GAATTCACGTGATGTG
CGGTTCACGTGGCGAG
TGAGTCACGTGAGGTC
GTTTCCACGTGAGGTT

Relative binding free energy, 0.21 kcal/mol:
TTTCTCACGTGTTAAG
TTACTCACGTGTGGCG

Relative binding free energy, 0.26 kcal/mol:
GAGTTCACGTGCGGCG
CGGGACACGTGAGGGT

Relative binding free energy, -0.2 kcal/mol:
GGGGGCACGTGCCGAG
